Measurements published in patent US8987302B2, “Treatment of hepatitis C virus related diseases using hydroxychloroquine or a combination of hydroxychloroquine and an anti-viral agent” (Panmed Ltd., priority 2010, dated 2015).

Tested on: NS5A and HCV core proteins
Test: Immunoblot of NS5A and HCV core proteins in Huh7 replicon cells
Conditions: 0.5 μM and 1 μM, 48 hours

## CCN(CCO)CCCC(C)Nc1ccnc2cc(Cl)ccc12 (stereo not shown) [HCQ, 2-[[4-[(7-chloro-4-quinolinyl)amino]pentyl]ethylamino]ethanol, reference compound]
  HCV core and NS5A protein level: decrease both HCV core and NS5a protein level in a dose-dependent manner
